Screen size: about 340,000 compounds; about 6,900 (2%) were called active. Cut-off read from the data, not from the text of the source: active = inhibition above about 30%; inactive = below that, where a call was filed. Only a part is listed here, and it is no random draw. The source gives no active or inactive call for entries shown without one.

Here are results for 95 molecules from PubChem BioAssay AID485344 (National Center for Advancing Translational Sciences (NCATS), 2010).

Sequence of UniProt P14416 (P14416 whole entry, looked up): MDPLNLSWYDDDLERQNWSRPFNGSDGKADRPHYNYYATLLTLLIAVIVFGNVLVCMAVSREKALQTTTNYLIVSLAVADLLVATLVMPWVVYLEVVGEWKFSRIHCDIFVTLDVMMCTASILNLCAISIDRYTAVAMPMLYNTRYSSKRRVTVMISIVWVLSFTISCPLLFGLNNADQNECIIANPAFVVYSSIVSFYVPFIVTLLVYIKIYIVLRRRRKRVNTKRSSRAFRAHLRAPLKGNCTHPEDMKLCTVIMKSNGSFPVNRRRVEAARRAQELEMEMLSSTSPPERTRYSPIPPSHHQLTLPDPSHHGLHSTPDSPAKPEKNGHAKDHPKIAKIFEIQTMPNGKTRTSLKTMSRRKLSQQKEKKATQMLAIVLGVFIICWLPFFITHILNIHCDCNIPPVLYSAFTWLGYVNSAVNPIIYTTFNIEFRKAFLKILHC

This test concerns the target D(2) dopamine receptor (Homo sapiens) (UniProt P14416). Put plainly: HTS Assay for Allosteric Antagonists of the Human D2 Dopamine Receptor: Primary Screen for Antagonists. Note: 0% is about no effect. To be noted: HEK293 TREx D2 cells, calcium flux, dopamine EC80; at 10 µM; stronger effect = higher value. The method, boiled down:
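Antagonism is scored as inhibition of an EC80 dopamine-evoked calcium signal in a force-coupled, tetracycline-inducible HEK293 T-REx D2 line, with compound present 180 s before agonist.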
(Calcium assays in cells follow changes in intracellular calcium, usually with a dye or a luminescent sensor.)
For orientation: inhibition means the change of the read-out against control, counted positive when it falls. Regarding `COCCn1c(C)cc(O)c(C(c2ccccc2)N2CCN(c3ccccc3F)CC2)c1=O` (stereo not given), the inhibition is -20.2%.
Turning to `CN1CCN(C2=Cc3ccccc3Sc3cc(F)c(Cl)cc32)CC1`, the inhibition is active: 73.5%.
For `COC(=O)c1cc(-c2ccc(Cl)cc2)c2c(=O)[nH]c(=O)n(C)c2n1`, the inhibition stood at 4.19%.
With `CCOCCCNC(=O)C1CCN(c2nc3ccc(C)cc3[nH]2)CC1`, the inhibition is -6.18%.
Then `COc1ccc(NC(=O)CCc2c(C)nn(-c3ccc(N4CCCC4)nn3)c2C)cc1Cl`, with 5.15%; and `Cc1ccc(NC(=O)CCn2cccn2)c(C)c1`, with 7.25%.
The figure for `COc1ccc(N2CCN(C(=O)Cn3cnc4sc(C)c(S(=O)(=O)N5CCCCC5)c4c3=O)CC2)cc1` is -2.37%; for `Cc1ccc(Cn2c(=O)n(CCc3ccccc3)c(=O)c3sc4ccccc4c32)cc1` it is -8.87%.
`O=C(CSc1nc2c([nH]c3ccccc32)c(=O)n1-c1ccccc1)Nc1cccc(C(F)(F)F)c1`: the inhibition came out at 11.1%.
On to `Cc1ccc(N(C)C(=O)Cn2ncc3c([nH]c4ccccc43)c2=O)cc1C`, for which the inhibition turned out to be 6.72%.
Regarding `O=C(NC1CCCCC1)c1ccc(CSc2nc3ccncc3n2Cc2cccc(F)c2)cc1`, the inhibition was -4.82%.
Then `CCc1ccc(CNC(=O)c2ccc3c(c2)c(C)c(C)n3Cc2ccccc2)cc1`, with 8.07%; and `CCOC(=O)N1CCc2c(sc(NCc3cc(OC)ccc3OC)c2C(=O)Nc2cc(OC)ccc2OC)C1`, with 1.41%.
With `CCOCCCNC(=O)C(c1ccc(C)cc1)N(Cc1ccc2c(c1)OCO2)C(=O)c1ccccc1O` (stereo not given), the inhibition was -25.6%.
Consider `CCc1nn(CC(=O)N2CCN(c3cccc(C)c3)C(C)C2)c(=O)c2cc3sccc3n12` (stereo not given), for which the inhibition was 1.84%.
Consider `COc1ccccc1C(=O)NC1(C(F)(F)F)NC(=O)N(CCc2ccccc2)C1=O` (stereo not given), for which the inhibition came out at 1.06%.
Take `Cc1ccc(NC(=O)n2ncc3c(C)cccc32)c(C)c1`: the inhibition stood at 20.4%.
As to `O=C(CSc1nnc2scc(-c3ccc(Cl)cc3)n12)Nc1ccc(F)cc1`, the inhibition came out at 8.36%.
Turning to `COc1ccc(OC)c(N(C(=O)c2snc(C(N)=O)c2N)C(C(=O)NCc2ccccc2)c2ccc(O)cc2)c1` (stereo not given), the inhibition was active: 43.4%.
In the case of `Cc1cc(C)c(NC(=O)CSc2nc(=O)n(Cc3ccncc3)c3c2CCC3)c(C)c1`, the inhibition was -1.7%.
The figure for `Cc1ccc(Nc2c(-c3cccnc3)nc3ccc(C)cn23)cc1` is 13.1%.
For the molecule `COc1cccc(C2=CC(c3ccccc3F)n3ncc(C(=O)Nc4ccc(F)cc4)c3N2)c1` (stereo not given), the inhibition was determined as 19%.
Then `O=C(NCCCN1CCCC1=O)Nc1ccc([N+](=O)[O-])cc1`, with active: 34.8%.
Then `COc1cc(C(C)=O)ccc1OCC(O)CN1CCN(c2cc(C)cc(C)c2)CC1` (stereo not given), with active: 57.9%; and `CCOC(=O)Cn1c(C)c(Br)c(=O)c2cccc(C)c21`, with active: 31.2%; and `CCCN(C(=O)c1cc2c(=O)oc3ccc(C)cc3c2s1)c1ccc(OCC)cc1`, with 14.6%.
Then `CCCCN1C(=O)C(O)(CC(=O)c2ccc(CC)cc2)c2cc(Br)ccc21` (stereo not given), with -5.38%; and `COc1cccc(CNC(=O)Cn2nc(C)n3c(cc4cc(C)ccc43)c2=O)c1OC`, with 1.3%; and `CCSc1nc(-c2cccc(Cl)c2)nc2c1Cc1c(CO)cnc(C)c1O2`, with -5.31%.
Turning to `COc1cccc(-c2nc(Cn3c(=O)cc(C)c4c(C)nn(-c5ccccc5)c43)c(C)o2)c1OC`, the inhibition stood at 0.923%.
`CCOc1ccc2nc(N(Cc3cccnc3)C(=O)c3cccs3)sc2c1`: the inhibition stood at 4.85%.
As for `Cc1c(Cl)ccc2sc(N3CCN(C(=O)CCS(=O)(=O)c4ccc(F)cc4)CC3)nc12`, the inhibition was found to be 0.819%.
On to `COc1ccc(-c2nc3ccccc3n2Cc2ccccc2)cc1`, for which the inhibition was -5.28%.
Regarding `CCCCCOc1ccc(NC(=O)Cn2c(-c3nonc3N)nc3ccccc32)cc1`, the inhibition worked out at 21.8%.
`CC1=C(C(=O)Nc2ccccc2)C(c2ccccn2)n2nc(SCc3ccccc3)nc2N1` (stereo not given): the inhibition is 8.72%.
For the molecule `Cc1ccc2c(c1)C(c1ccccc1)N(C(=O)COc1ccc(Cl)cc1Cl)CC(=O)N2` (stereo not given), the inhibition was -3.44%.
In the case of `COC(=O)c1ccccc1NS(=O)(=O)c1cc2c3c(c1)CC(=O)N3CCC2`, the inhibition was 8.15%.
In the case of `CCN(CC)S(=O)(=O)c1ccc2c(c1)N(CC(=O)Nc1ccc(Cl)cc1)C(=O)C1CCCN21` (stereo not given), the inhibition is 3.73%.
Take `Oc1oc(-c2ccccc2)nc1C=NCc1ccncc1`: the inhibition is active: 30.7%.
As for `CC(C)(C)c1ccc(C(=O)NCC(c2ccco2)S(=O)(=O)c2ccccc2)cc1` (stereo not given), the inhibition was -13%.
As to `COc1ccccc1CNC(=O)C(=O)NCC(c1ccco1)S(=O)(=O)c1ccc(F)cc1` (stereo not given), the inhibition is -11.4%.
In the case of `COc1ccc(C)c2sc(NC(=O)c3ccc(S(=O)(=O)N4CCOCC4)cc3)nc12`, the inhibition is -16%.
Then `COc1ccc(C(=O)Oc2c(Sc3ccccc3)c(C)nn2-c2ccccc2)c(OC)c1`, with -0.473%.
For `COc1cccc(N2CCN(C(=O)c3cnc4c(-c5ccc(F)cc5)c(C)nn4c3C)CC2)c1`, the inhibition came out at 20.2%.
As for `CCOc1ccc(NC(=O)c2cc(-c3ccc(C)c(F)c3)on2)c([N+](=O)[O-])c1`, the inhibition turned out to be 16.7%.
Turning to `Cc1cccc(C)c1OCCn1c(CCNC(=O)C2CCCCC2)nc2ccccc21`, the inhibition was 6.5%.
As to `CCc1c(O)nc(SCC(=O)N(CC)CC)[nH]c1=O`, the inhibition is active: 34.1%.
Then `CC(C)OC(=O)c1c(NC(=O)c2cccc(C(F)(F)F)c2)sc2c1CCCC2`, with -4.94%; and `O=C1CC(c2ccccc2)Sc2ccccc2N1Cc1ccccc1F` (stereo not given), with 10.8%; and `COc1ccc(NC(=O)Cn2ccn(-c3ccc(F)c(F)c3)c(=O)c2=O)cc1Cl`, with -15.4%.
The figure for `COc1ccccc1NC(=O)NC1CCS(=O)(=O)C1` (stereo not given) is active: 39.2%; for `COc1ccc(CNC(=O)CCC2N=C3c4ccccc4N=C(SCC(=O)NCCc4ccc(OC)c(OC)c4)N3C2=O)cc1` (stereo not given) it is -2.39%; for `COc1ccc(CNC(=O)c2cc3c(=O)n(Cc4ccco4)ccc3nc2C)c(OC)c1` it is 1.84%.
For the molecule `CC(=O)N1CCCc2cc(S(=O)(=O)N(C)CC(=O)Nc3ccc(C(C)C)cc3)ccc21`, the inhibition turned out to be 14.9%.
With `CC(C)c1ccc(OCC(=O)Nc2ccc(S(=O)(=O)Nc3ncccn3)cc2)cc1`, the inhibition was 1.54%.
Regarding `O=C(O)CCSc1nc(C(F)(F)F)cc(=O)n1-c1ccccc1`, the inhibition was active: 32.7%.
The figure for `Cn1cc(-c2cc3n(n2)CCC(=O)N3CCCC(=O)Nc2ccc(Cl)cc2)c2ccccc21` is 19.3%; for `Cc1ccccc1Cn1c2ccccc2c2cnn(CC(=O)NCc3cccc(Cl)c3)c(=O)c21` it is 1.22%; for `CCN(CC)c1ccc(NC(=O)COCc2cc(-c3ccc4c(c3)OCO4)on2)c(C)c1` it is -5.55%.
For `Cc1ccc(N2CCN(C(=O)c3c(C)oc4ncn(C)c(=O)c34)CC2)c(C)c1`, the inhibition is -4.35%.
As for `Cc1nc(-n2nc(C)c(Cc3ccc(Cl)cc3)c2C)sc1C(=O)N1CCC(C)CC1`, the inhibition was determined as 14.1%.
For `Cc1ccc(NC(=O)CSc2nc3c(oc4ccccc43)c(=O)n2Cc2ccco2)cc1F`, the inhibition came to 2.07%.
As for `COc1ccc(OC)c(CCNc2ncnc3onc(-c4ccc(Cl)cc4)c23)c1`, the inhibition is -6.43%.
Turning to `Cc1cccc(CNC(=O)c2cnc3c(-c4cccc(C)c4)c(C)nn3c2C)c1`, the inhibition was -13.1%.
Turning to `CCCCC(=O)N1c2ccccc2C(C)(c2ccccc2)CC1(C)C` (stereo not given), the inhibition was 22.8%.
With `CCc1ccc(S(=O)(=O)NCCc2cn3ccsc3n2)cc1`, the inhibition was -25.7%.
Then `CC(=O)N1CCCc2cc(S(=O)(=O)N(C)CC(=O)Nc3cccc(Cl)c3C)ccc21`, with 16.1%; and `Cn1c(=O)c2cc(S(=O)(=O)NC(Cc3ccccc3)C(=O)Nc3ccc(F)cc3)ccc2n(C)c1=O` (stereo not given), with 1.99%.
As for `O=C(c1ccccc1Cl)n1nc(-c2ccco2)nc1NCc1cccs1`, the inhibition amounted to 8.76%.
The figure for `CCOC(=O)CN(C(=O)CSc1nnc2c(n1)[nH]c1ccc(OC)cc12)c1ccc(F)cc1` is active: 79.7%; for `CCOc1ccccc1NC(=O)N1CCN(S(=O)(=O)c2ccc3c(ccn3C)c2)CC1` it is 2.07%; for `CC(C)c1ccccc1NC(=O)CSc1nnc(COc2ccccc2Cl)o1` it is 0.498%.
With `CCN(c1ccc(C)cc1)S(=O)(=O)c1nnc(NC(=O)c2cccs2)s1`, the inhibition turned out to be 0.292%.
Then `Cc1ccc(-c2ccc(CCC(=O)O)n2-c2ccc(C(C)C)cc2)cc1`, with 19.7%; and `COc1ccccc1CNC(=O)Cn1ncc2c(C)n(Cc3ccccc3Cl)c(C)c2c1=O`, with -2.95%; and `Nc1c(-c2nc(-c3ccccc3)no2)nnn1CC(=O)Nc1ccccc1`, with 6.27%.
Then `CCN(CC)CCNC(=O)c1cc2c(=O)[nH]c3ccc(C)cc3c2s1`, with 2.55%.
As to `Clc1ccc(OCCOCCN2CCCCC2)c(Br)c1`, the inhibition is active: 76.9%.
Turning to `Cc1ccc(NC(=O)/C(C#N)=C\c2ccc(Cl)cc2Cl)cc1C`, the inhibition was -0.425%.
Turning to `CCOc1ccccc1N1CC(c2nc3ccccc3n2CCOc2ccc(C(C)(C)C)cc2)CC1=O` (stereo not given), the inhibition stood at 12%.
For the molecule `CCN(c1cc(C)cc(C)c1)S(=O)(=O)c1nnc(NC(=O)c2cccc(F)c2)s1`, the inhibition is 5.28%.
Regarding `CCCOc1ccc(C2C(=O)N(C3CCCCCC3)CC(=O)N2CCCOCC)cc1OC` (stereo not given), the inhibition is 19%.
Turning to `CC1Cc2ccccc2N1C(=O)CN1CCN(Cc2ccccc2)CC1` (stereo not given), the inhibition is active: 41%.
Consider `CCOc1ccccc1N(C)C(=O)Cn1nc(Cc2cccnc2)c2ccccc2c1=O`, for which the inhibition was -19.1%.
For `COC(=O)CSc1nnc2n(-c3ccccc3)c(=O)c3c4c(sc3n12)COC(C(C)C)C4` (stereo not given), the inhibition was 14.8%.
As for `COc1ccc2nc(NC(=O)C3CC(=O)N(c4ccccc4)C3)sc2c1` (stereo not given), the inhibition is active: 31.2%.
With `O=C(/C=C/c1ccccc1)N1CCN(Cc2cc(=O)n3nc(-c4ccccc4)sc3n2)CC1`, the inhibition was found to be 9.38%.
As for `CCC(=O)N1CCc2cc(S(=O)(=O)N(C)c3cccc(C)c3)ccc21`, the inhibition turned out to be 9.37%.
`O=C(Nc1nc(-c2ccc(Br)cc2)ns1)c1ccccc1F`: the inhibition is 5.39%.
With `O=S(=O)(Nc1cccc(-c2ccc(N3CCOCC3)nn2)c1)c1ccc(F)cc1F`, the inhibition is -7.25%.
Consider `Cc1cccc(N2CCN(C(=O)C3CCN(S(=O)(=O)c4ccc5c(c4)oc(=O)n5C)CC3)CC2)c1C`, for which the inhibition is 0.358%.
Regarding `COc1ccccc1N1CCN(CCCCOc2c(OC)cccc2OC)CC1`, the inhibition was active: 78.4%.
Then `COC(=O)CCN(C(=O)c1c(C)oc2ncnc(N3CCOCC3)c12)c1ccccc1`, with 15.4%.
As for `O=c1c2c3c(sc2n(Cc2cc(=O)n4ccccc4n2)c(=O)n1-c1ccc(Cl)cc1)CCC3`, the inhibition was -27.9%.
Take `Cc1cc(C)c2oc(C(=O)Nc3ccc(S(=O)(=O)N(C)c4ccccc4)cc3)cc(=O)c2c1`: the inhibition was -3.98%.
